From paper PMC9911399, “Two distinct binding modes provide the RNA-binding protein RbFox with extraordinary sequence specificity”
Where a chain is given by its changes, count along the chain named. This is one part of the list.

B1: GCUCGGG (DNA:RNA)
RNA: GGGAGACCGGAAUUCAGAUUGUCCGCUCGGGUUAAAUCCCGUCGUAGCCACCA
DNA 1: CAATCTGAATTCCGGTCTCCC
DNA 2: TGGTGGCTACGACGGGATT
B2: GGCAGGC (DNA:RNA)
RNA: B1 RNA with C26G, U27C, C28A, G31C
DNA 1: CAATCTGAATTCCGGTCTCCC
DNA 2: TGGTGGCTACGACGGGATT
B3: UAUGUAU (DNA:RNA)
RNA: B1 RNA with G25U, C26A, C28G, G29U, G30A, G31U
DNA 1: CAATCTGAATTCCGGTCTCCC
DNA 2: TGGTGGCTACGACGGGATT
B4: CCUCGAC (DNA:RNA)
RNA: B1 RNA with G25C, G30A, G31C
DNA 1: CAATCTGAATTCCGGTCTCCC
DNA 2: TGGTGGCTACGACGGGATT
B5: CGUUGCC (DNA:RNA)
RNA: B1 RNA with G25C, C26G, C28U, G30C, G31C
DNA 1: CAATCTGAATTCCGGTCTCCC
DNA 2: TGGTGGCTACGACGGGATT
B6: AUAACCG (DNA:RNA)
RNA: B1 RNA with G25A, C26U, U27A, C28A, G29C, G30C
DNA 1: CAATCTGAATTCCGGTCTCCC
DNA 2: TGGTGGCTACGACGGGATT
B7: AUUUAAU (DNA:RNA)
RNA: B1 RNA with G25A, C26U, C28U, G29A, G30A, G31U
DNA 1: CAATCTGAATTCCGGTCTCCC
DNA 2: TGGTGGCTACGACGGGATT
B8: CGGGGGG (DNA:RNA)
RNA: B1 RNA with G25C, C26G, U27G, C28G
DNA 1: CAATCTGAATTCCGGTCTCCC
DNA 2: TGGTGGCTACGACGGGATT
B9: CAUACCG (DNA:RNA)
RNA: B1 RNA with G25C, C26A, C28A, G29C, G30C
DNA 1: CAATCTGAATTCCGGTCTCCC
DNA 2: TGGTGGCTACGACGGGATT
B10: GUGCCCU (DNA:RNA)
RNA: B1 RNA with C26U, U27G, G29C, G30C, G31U
DNA 1: CAATCTGAATTCCGGTCTCCC
DNA 2: TGGTGGCTACGACGGGATT
B11: CAGGCCC (DNA:RNA)
RNA: GGGAGACCGGAAUUCAGAUUGUCCCAGGCCCUUAAAUCCCGUCGUAGCCACCA
DNA 1: CAATCTGAATTCCGGTCTCCC
DNA 2: TGGTGGCTACGACGGGATT
B12: GCGGAAC (DNA:RNA)
RNA: B11 RNA with C25G, A26C, C29A, C30A
DNA 1: CAATCTGAATTCCGGTCTCCC
DNA 2: TGGTGGCTACGACGGGATT
B13: CAUCUAC (DNA:RNA)
RNA: B11 RNA with G27U, G28C, C29U, C30A
DNA 1: CAATCTGAATTCCGGTCTCCC
DNA 2: TGGTGGCTACGACGGGATT
B14: AACUUGA (DNA:RNA)
RNA: B11 RNA with C25A, G27C, G28U, C29U, C30G, C31A
DNA 1: CAATCTGAATTCCGGTCTCCC
DNA 2: TGGTGGCTACGACGGGATT
B15: AUGGUCU (DNA:RNA)
RNA: B11 RNA with C25A, A26U, C29U, C31U
DNA 1: CAATCTGAATTCCGGTCTCCC
DNA 2: TGGTGGCTACGACGGGATT
B16: UAGAGCG (DNA:RNA)
RNA: B11 RNA with C25U, G28A, C29G, C31G
DNA 1: CAATCTGAATTCCGGTCTCCC
DNA 2: TGGTGGCTACGACGGGATT
B17: CAACUAC (DNA:RNA)
RNA: B11 RNA with G27A, G28C, C29U, C30A
DNA 1: CAATCTGAATTCCGGTCTCCC
DNA 2: TGGTGGCTACGACGGGATT
B18: UUAGACG (DNA:RNA)
RNA: B11 RNA with C25U, A26U, G27A, C29A, C31G
DNA 1: CAATCTGAATTCCGGTCTCCC
DNA 2: TGGTGGCTACGACGGGATT
B19: UUCUAUG (DNA:RNA)
RNA: B1 RNA with G25U, C26U, U27C, C28U, G29A, G30U
DNA 1: CAATCTGAATTCCGGTCTCCC
DNA 2: TGGTGGCTACGACGGGATT
B20: GAUAUGC (DNA:RNA)
RNA: B1 RNA with C26A, C28A, G29U, G31C
DNA 1: CAATCTGAATTCCGGTCTCCC
DNA 2: TGGTGGCTACGACGGGATT

Molecular target: T1, RBFOX1 RRM (Homo sapiens, UniProt Q9NWB1 109-208)
T1 sequence: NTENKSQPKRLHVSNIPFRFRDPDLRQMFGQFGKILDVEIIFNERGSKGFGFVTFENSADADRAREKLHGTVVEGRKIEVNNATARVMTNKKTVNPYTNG
Test: EMSA; HiTS-Eq, 1 nM pool, 10 min; buffer printed only for the single-RNA assays: 10 mM Tris pH 7.5, 150 mM NaCl, 3.4 mM EDTA, 0.001% NP-40, 30 C
Conditions: tags: His6 N-terminal (pET28a); label: 5' 32P
Summary of the method: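 Purified RbFox RRM (wild type or mutant) was equilibrated for 10 min in 50 µL with 1 nM of a 5′-radiolabelled pool of RNA with 7 randomized nucleotides, its flanks annealed to DNA oligonucleotides, across increasing protein concentrations. Free RNA was separated by 8% native PAGE, excised, reverse-transcribed, PCR-barcoded and sequenced on an Illumina HiSeq 2500. Relative association constants came from read-count changes of each variant against the control reaction, normalised to the cognate motif.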

| Binder | binding signal |
| --- | --- |
| B1 | 0.0176 KA relative to UGCAUGU |
| B2 | 0.0103 KA relative to UGCAUGU |
| B3 | 0.0166 KA relative to UGCAUGU |
| B4 | 0.00479 KA relative to UGCAUGU |
| B5 | 0.014 KA relative to UGCAUGU |
| B6 | 0.000312 KA relative to UGCAUGU |
| B7 | 0.00361 KA relative to UGCAUGU |
| B8 | 0.0136 KA relative to UGCAUGU |
| B9 | 0.000194 KA relative to UGCAUGU |
| B10 | 0.00968 KA relative to UGCAUGU |
| B11 | 0.00671 KA relative to UGCAUGU |
| B12 | 0.0146 KA relative to UGCAUGU |
| B13 | 0.00128 KA relative to UGCAUGU |
| B14 | 0.00741 KA relative to UGCAUGU |
| B15 | 0.0168 KA relative to UGCAUGU |
| B16 | 0.0165 KA relative to UGCAUGU |
| B17 | 0.000393 KA relative to UGCAUGU |
| B18 | 0.00752 KA relative to UGCAUGU |
| B19 | 0.0108 KA relative to UGCAUGU |
| B20 | 0.0126 KA relative to UGCAUGU |
